# Laboratory results published in PubChem BioAssay AID2147 (National Center for Advancing Translational Sciences (NCATS), 2009).
# About 3,600 (1.6%) of roughly 230,000 compounds were called active. Inconclusive means that the source gave no clear call. Such entries were picked first, then a sample of the others. Calls follow the shape of the dose curve; as a rule, active = well fitted inhibition curve with a large enough effect (not every such curve was filed as active); inconclusive = small, poorly fitted or top-dose-only effect, or another doubt; inactive = no such curve, though single readings can be large or run the other way. A potency beside an inconclusive call is a rough fit, not a confirmed value.
# Biological target: Lysine-specific demethylase 4E (Homo sapiens) (UniProt B2RXH2)
# Sequence of UniProt B2RXH2 (B2RXH2 whole entry, looked up, the tested form may be a part): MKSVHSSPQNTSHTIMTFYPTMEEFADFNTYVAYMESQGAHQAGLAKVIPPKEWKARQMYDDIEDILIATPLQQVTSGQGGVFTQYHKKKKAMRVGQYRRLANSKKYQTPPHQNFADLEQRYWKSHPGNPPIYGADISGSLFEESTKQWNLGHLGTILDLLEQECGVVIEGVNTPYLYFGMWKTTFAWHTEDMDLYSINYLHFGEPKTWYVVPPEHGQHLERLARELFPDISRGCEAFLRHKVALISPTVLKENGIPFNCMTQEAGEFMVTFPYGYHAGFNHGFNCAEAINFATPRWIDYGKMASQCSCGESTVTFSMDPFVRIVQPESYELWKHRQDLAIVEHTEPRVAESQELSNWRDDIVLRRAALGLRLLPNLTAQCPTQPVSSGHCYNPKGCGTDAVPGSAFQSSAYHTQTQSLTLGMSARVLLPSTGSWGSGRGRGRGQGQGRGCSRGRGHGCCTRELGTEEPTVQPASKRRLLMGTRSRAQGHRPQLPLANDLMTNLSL
# Assay: qHTS Assay for Inhibitors of Human Jumonji Domain Containing 2E (JMJD2E)
# Conditions: JMJD2E catalytic domain, FDH-coupled NADH fluorescence (FDH is formaldehyde dehydrogenase); series mostly up to 57.1 µM
# Also: nearly all actives have a fitted effect of over 50% in size.
# Potency is read from the fitted curve at half-maximal effect; tags tell the direction and shape of the fitted curve.
row,SMILES,Potency
1,Cc1ccc(/C=C/C(=O)NCc2ccncc2)cc1,"inconclusive: 35.5 µM [inhibitor, single point]"
2,Cc1cc(-c2n[nH]c(=S)n2-c2ccccc2C)cs1,inactive
3,O=c1c2cc(-c3ccccc3)sc2nc2n1N=C(c1cccs1)CS2,"inconclusive: 31.6 µM [inhibitor, single point]"
4,CCCCCCCCCCCCCCCC(=O)OC(CO)CO,inactive
5,CCOC(=O)c1cccc(NC(=O)CCS(=O)(=O)c2cccc3nsnc23)c1,"inconclusive: 28.2 µM [inhibitor, single point]"
6,CN(C)S(=O)(=O)Nc1ccc(Oc2ccccc2)cc1,inactive
7,CCCCN(C)Cc1cc(=O)oc2cc3c(cc12)CCCC3,"inconclusive: 39.8 µM [inhibitor, single point]"
8,CCOc1ccc(NC(=S)N(CCN2CCOCC2)Cc2cc3cc4c(cc3[nH]c2=O)OCO4)cc1,"inconclusive: 31.6 µM [inhibitor, partial curve]"
9,Cc1ccc(C)c(N2C(=N)S/C(=C\c3ccc(-c4ccccc4C(=O)O)o3)C2=O)c1,inactive
10,O=c1oc(-c2ccco2)nc2ccccc12,"inconclusive: 28.2 µM [inhibitor, single point]"
11,O=C1C2CC=CCC2C(=O)N1c1ccc(NCCc2ccc(O)cc2)c([N+](=O)[O-])c1 (stereo unspecified),inactive
12,Cc1ccc(-c2csc3ncnc(Oc4ccc5c(C)cc(=O)oc5c4)c23)cc1,"inconclusive: 3.16 µM [inhibitor, full curve]"
13,Cc1cc2nc(N)sc2cc1C,inactive
14,CCCOC(=O)Oc1ccc2c(=O)c(Oc3cc(C)cc(C)c3)coc2c1,"inconclusive: 39.8 µM [inhibitor, single point]"
15,COc1ccccc1C(=O)Nc1c2c(nn1-c1cccc(C)c1C)CS(=O)(=O)C2,"inconclusive: 35.5 µM [inhibitor, single point]"
16,O=C(COC(=O)CC1CC2CCC1C2)Nc1cccc(S(=O)(=O)NC2=NCCCCC2)c1 (stereo unspecified),inactive
17,CCOC(=O)c1ccc(N2CCN(c3ccc(F)cc3)CC2)c(NC(=O)Nc2cccc(OC)c2)c1,"inconclusive: 35.5 µM [inhibitor, partial curve]"
18,Cc1cccc2[nH]c(-c3ccc(NC(=O)c4ccco4)cc3)nc12,"inconclusive: 35.5 µM [inhibitor, single point]"
19,C=CCOc1c(CNc2cccc(C(=O)O)c2)cccc1OC,"inconclusive: 31.6 µM [inhibitor, partial curve]"
20,Cc1ccc2c(CN3CCCc4ccccc43)cc(=O)oc2c1C,"inconclusive: 28.2 µM [inhibitor, single point]"
21,CN(C)C=Nc1ncc2c([nH]c3ccccc32)c1C#N,"inconclusive: 28.2 µM [inhibitor, partial curve]"
22,COc1ccc(CNC(=S)Nc2ccc(S(N)(=O)=O)cc2)cc1,"inconclusive: 25.1 µM [inhibitor, single point]"
23,N#CCC(N)=C(C#N)C#N,active: 7.94 µM

row,SMILES,Potency
1,O=C(COC(=O)c1sc2ccccc2c1Cl)Nc1ncc(Cl)cc1Cl,"inconclusive: 39.8 µM [inhibitor, single point]"
2,c1ccc(CN2CCN(CCOCCOc3ccc4c(c3)CCC4)CC2)cc1,inactive
3,N#Cc1c(N)nc2c(c1-c1ccncc1)CCCC2,"inconclusive: 28.2 µM [inhibitor, partial curve]"
4,O=C1CC(c2ccccc2O)Oc2ccc(O)cc21 (stereo unspecified),inactive
5,COc1ccc2cc(CN(CCc3ccccc3)Cc3nnnn3Cc3ccco3)c(=O)[nH]c2c1,"inconclusive: 25.1 µM [inhibitor, single point]"
6,CCN(CC)C(=O)C1CCN(Cc2ccc(Br)cc2)CC1,"inconclusive: 28.2 µM [inhibitor, single point]"
7,CCOC(=O)c1sc(-c2ccc(C)cc2)c(C#N)c1C,"inconclusive: 25.1 µM [inhibitor, partial curve]"
8,COC(=O)c1c(C)cc(C)n2c1nc1ccccc12,"inconclusive: 22.4 µM [inhibitor, partial curve]"
9,CC(NC(=O)COC(=O)c1ccc2c(c1)OCO2)c1ccccc1 (stereo unspecified),"inconclusive: 22.4 µM [inhibitor, single point]"
10,CC(C)C(=O)Nc1c2c(nc3ccccc13)N(C)CC2,"inconclusive: 14.1 µM [inhibitor, partial curve]"
11,COc1ccc(Nc2nc(-c3cccc([N+](=O)[O-])c3)nc3ccccc23)c(OC)c1,inactive
12,COC(=O)CN(c1ccccn1)S(=O)(=O)c1ccccc1,"inconclusive: 35.5 µM [inhibitor, partial curve]"
13,COc1cc2c(C#N)c(N3CCN(c4ccccc4OC)CC3)nc(N)c2c(N)n1,"inconclusive: 2 µM [inhibitor, full curve]"
14,CCc1ccc(Nc2n[n+](C)c(-c3ccc(C(=O)O)cc3)s2)cc1,"inconclusive: 15.8 µM [inhibitor, partial curve]"
15,CCOC(=O)c1[nH]c2ccccc2c1NC(=O)C(C)(C)C,"inconclusive: 28.2 µM [inhibitor, partial curve]"
16,C/C(=C\C(=O)c1ccccc1)Nc1ccc2c(c1)OCO2,"inconclusive: 31.6 µM [inhibitor, partial curve]"
17,O=C1C(CCCNC(=S)NCc2ccccc2)NC(=S)N1Cc1ccccc1 (stereo unspecified),inactive
18,CCn1nnnc1SCC(=O)NCc1ccc2c(c1)OCO2,inactive
19,CCOC(=O)c1cc2sccc2n1CC(=O)OC,"inconclusive: 39.8 µM [inhibitor, single point]"
20,COC(=O)C1=C(C)NC(=O)/C1=C\c1cc(C)n(-c2c(C)cccc2C)c1C,"inconclusive: 17.8 µM [inhibitor, partial curve, poor fit]"
21,COc1ccc(S(=O)(=O)/N=C2/NC(=O)/C(=C\c3cc(OC)c(OC)cc3[N+](=O)[O-])S2)cc1,inactive
22,CCOC(=O)CCSc1nc(C)c2ccccc2n1,"inconclusive: 39.8 µM [inhibitor, single point]"
23,Cc1ccc(-c2cc(C(=O)N/N=C/C=C/c3ccccc3)n[nH]2)s1,"inconclusive: 39.8 µM [inhibitor, single point]"
